# Reference: PubChem BioAssay AID1508623 (National Center for Advancing Translational Sciences (NCATS), 2021)
# Screen size: about 48,000 compounds; about 450 (0.94%) were called active. Roughly 19% stayed inconclusive and do not appear here. Calls come from the whole dose curve; as a rule, active = well fitted inhibition curve with a large enough effect; inconclusive = small, poorly fitted or top-dose-only effect; inactive = no such curve, though single readings can be large or run the other way. The list shows a part of the results.
# Test: Primary qHTS for Identification of Small Molecule Inhibitors of Huntingtin Promoter Activity; note: nearly all actives have a fitted effect of over 50% in size
# Settings: HEK293 HTT promoter firefly luciferase reporter (activity 0% = vehicle and -100% = no light), 24 h; activity change, negative = inhibition: at the top concentration
# Summary of the method: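 Luminescence was read after Dual-Glo reagent and a 10 min room-temperature incubation. Values were normalized to vehicle (0% activity) and zero RLU (-100% activity). Reporter HEK293 cells had been exposed to compounds (up to 57.5 uM final) for 24 h.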
# Potency is the fitted concentration of half-maximal effect.
SMILES,"activity change, negative = inhibition",Potency
Cc1cc(SCc2sc(-c3ccc(C(F)(F)F)c(F)c3)nc2C)ccc1OCC(=O)O,inactive: 16.7%,–
CCc1ccc(C2CCNCC2)cc1,inactive: -6.01%,–
Clc1ccccc1C(c1ccccc1)(c1ccccc1)n1cccn1,inactive: -0.543%,–
CCO/N=C(\CC)C1=C(O)CC(c2c(C)cc(C)cc2C)CC1=O (configuration not stated),inactive: -3.45% [at 116 µM],–
Clc1ccc(C(OCCN2CCCCC2)c2ccccc2)cc1 (configuration not stated),inactive: -6.57%,–
CCCSP(=O)(OCC)SCCC,inactive: 7.16% [at 116 µM],–
CCOCCOC(C)=O,inactive: 10.9% [at 116 µM],–
CC[N+](CC)(CC)CC,inactive: 5%,–
COc1cc2[nH]c(=O)n(-c3ccc(C)cc3)c(=O)c2cc1OC,inactive: 5.21%,–
CCC(COC(=O)c1cc(OC)c(OC)c(OC)c1)(c1ccccc1)N(C)C (configuration not stated),inactive: 4.71%,–
CCN(C(C)=O)c1cccc(-c2ccnc3c(C#N)cnn23)c1,inactive: 3.35%,–
O=C(Nc1ccc(Br)cc1C(=O)c1ccccc1Cl)c1ccc(Br)cc1,inactive: -11.6% [at 11.5 µM],–
COc1ccccc1-c1nn2c(=O)cc(CN3CCN(C(=O)COc4ccccc4Cl)CC3)nc2s1,inactive: -20.4%,–
CN(C)NC(=O)CCC(=O)O,inactive: -9.37%,–
O=[N+]([O-])c1ccc([As](=O)(O)O)cc1,inactive: 3.04%,–
O=C1c2ccccc2C(=O)c2ccccc21,inactive: -2.56% [at 25.2 µM],–
Cc1ccc2c(=O)n(-c3cccc(Cl)c3)c(=O)[nH]c2c1,inactive: -0.185%,–
Cc1ccc2nc(NC(=O)c3cccn(Cc4ccccc4F)c3=O)sc2c1,inactive: 4.18%,–
C1CCC(NC2CCCCC2)CC1,inactive: -1.25%,–

SMILES,"activity change, negative = inhibition",Potency
CCC1(c2cccc(O)c2)CCCCN(C)C1 (configuration not stated),inactive: -6.86%,–
C[C@@H]1CC[C@H]2[C@@H](C)C(=O)O[C@@H]3O[C@@]4(C)CC[C@@H]1[C@]32OO4,inactive: -10.7%,–
CC(=O)OCC1=C(C(=O)O)N2C(=O)[C@@H](N)[C@@H]2SC1,inactive: -14%,–
O=c1c2ccccc2nc(/C=C/c2cccc3ccccc23)n1-c1ccc(Cl)cc1,inactive: -27.3%,–
CCC12CN3CC(CC)(CN(C1)C3c1c(C)[nH]c(=O)[nH]c1=O)C2=O (configuration not stated),inactive: -9.9%,–
CC(C)Oc1cccc(NC(=O)c2ccccc2C(F)(F)F)c1,inactive: -21.2% [at 116 µM],–
COc1cc(C[C@@H](C)N)c(OC)cc1Br,inactive: -0.042% [at 116 µM],–
COc1cc(OC)cc(C(=O)Nc2ccc(Cl)cc2C(=O)c2ccccc2Cl)c1,inactive: -0.568%,–
CC(C)(C)NCC(O)c1ccccc1Cl (configuration not stated),inactive: 4.71%,–
Oc1ccc([C@H]2CNCc3c2ccc(O)c3O)cc1O,inactive: 0.341%,–
Cc1ccc(OCC(=O)N2CCN(Cc3ccc(F)cc3)CC2)cc1,inactive: -26%,–
CC(C)C[C@H](CN)CC(=O)O,inactive: -7.34%,–
CN(C)C(=S)SSC(=S)N(C)C,inactive: -28.3%,–
c1cnc2c(c1)ncn2C1CCNCC1,inactive: 0%,–
COc1cccc(-n2c(/C=C\c3ccc(Cl)cc3)nc3ccccc3c2=O)c1,inactive: -2.02%,–
Cc1ccc(C(C)(C)C)c(OCC(=O)Nc2ccc(Cl)cc2C(=O)c2ccccc2)c1,inactive: 5.65%,–
COc1ccc2c(c1)[C@]13CCCCC1C(C2)N(C)CC3 (some centres not stated),inactive: 10.6%,–
Sc1ccccc1Cl,inactive: -1.64%,–
COc1ccc2c(c1)CN(C)CC2c1ccc(Cl)c(Cl)c1 (configuration not stated),inactive: -5.77%,–

SMILES,"activity change, negative = inhibition",Potency
C#C[C@]1(O)C=C[C@H]2[C@@H]3CCC4=CC(=O)CC[C@@H]4[C@H]3CC[C@@]21CC,inactive: -4.71%,–
Cc1cc(C)cc(NC(=O)CN2C(=O)CN=C(c3ccccc3)c3cc(Cl)ccc32)c1,inactive: -12.2%,–
O=C(COc1ccc(Br)cc1)Nc1ccc(Cl)cc1C(=O)c1ccccc1,inactive: 3.1%,–
CN1C(=O)NC(=O)C(C)(C2=CCCCC2)C1=O (configuration not stated),inactive: -3.17%,–
CN1C(=O)CN=C(c2ccccc2)c2cc([N+](=O)[O-])ccc21,inactive: 1.1%,–
Cc1ccc(-n2c(/C=C\c3ccc(F)c(F)c3)nc3ccccc3c2=O)c(C)c1,–,active: 7.08 µM
O=[N+]([O-])/N=C1\NCCN1Cc1ccc(Cl)nc1,inactive: 5.95%,–
CC(=O)OCC1=C(C(=O)O)N2C(=O)[C@@H](N)[C@H]2SC1,inactive: -6.52% [at 25.2 µM],–
COC(=O)c1cncn1C(C)c1ccccc1 (configuration not stated),inactive: -4.19%,–
C[C@H]1C(=O)O[C@@H]2CCN3CC=C(COC(=O)[C@](C)(O)[C@]1(C)O)[C@H]23,inactive: -1.21%,–
Cc1cccc(OCC(=O)N2CCN(Cc3cc(=O)n4nc(-c5ccccc5Cl)sc4n3)CC2)c1,inactive: -9.15%,–
COc1ccc(C)cc1NC(=O)c1cccn(Cc2cccc([N+](=O)[O-])c2)c1=O,inactive: 43.9%,–
CC(C)(N)Cc1ccc(Cl)cc1,inactive: 11.8%,–
Cc1ccc(-n2c(/C=C/c3cccs3)nc3ccccc3c2=O)cc1C,inactive: -35.8%,–
COCCOCCO,inactive: -2.64% [at 116 µM],–
COc1ccc(CN2CCNCC2)c(OC)c1OC,inactive: 1.77%,–
C[C@]12C=CC(=O)C=C1CC[C@@H]1[C@@H]2CC[C@@]2(C)[C@H]1CC[C@]2(C)O,inactive: -21.6%,–
C[C@]12CC[C@H]3[C@@H](CCC4=CC(=O)CC[C@@H]43)[C@@H]1CC[C@@H]2O,inactive: 2.82%,–
CCCC12CN3CC(CCC)(CN(C1)C3c1ccccn1)C2=O (configuration not stated),inactive: -13.6%,–
